The campaign covered roughly 310,000 compounds. About 14,000 (4.5%) showed an effect of 50% or more. Effects have a minus sign here. This is one part of the list.
Target: human ether-à-go-go-related gene (hERG) potassium channel (human, UniProt Q12809)
Test: primary screen, population patch clamp on CHO cells stably expressing hERG
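Further: peak tail current of the secondary pulse compared with the same well before compound.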

Chain of human ether-à-go-go-related gene (hERG) potassium channel (Q12809 whole entry, looked up): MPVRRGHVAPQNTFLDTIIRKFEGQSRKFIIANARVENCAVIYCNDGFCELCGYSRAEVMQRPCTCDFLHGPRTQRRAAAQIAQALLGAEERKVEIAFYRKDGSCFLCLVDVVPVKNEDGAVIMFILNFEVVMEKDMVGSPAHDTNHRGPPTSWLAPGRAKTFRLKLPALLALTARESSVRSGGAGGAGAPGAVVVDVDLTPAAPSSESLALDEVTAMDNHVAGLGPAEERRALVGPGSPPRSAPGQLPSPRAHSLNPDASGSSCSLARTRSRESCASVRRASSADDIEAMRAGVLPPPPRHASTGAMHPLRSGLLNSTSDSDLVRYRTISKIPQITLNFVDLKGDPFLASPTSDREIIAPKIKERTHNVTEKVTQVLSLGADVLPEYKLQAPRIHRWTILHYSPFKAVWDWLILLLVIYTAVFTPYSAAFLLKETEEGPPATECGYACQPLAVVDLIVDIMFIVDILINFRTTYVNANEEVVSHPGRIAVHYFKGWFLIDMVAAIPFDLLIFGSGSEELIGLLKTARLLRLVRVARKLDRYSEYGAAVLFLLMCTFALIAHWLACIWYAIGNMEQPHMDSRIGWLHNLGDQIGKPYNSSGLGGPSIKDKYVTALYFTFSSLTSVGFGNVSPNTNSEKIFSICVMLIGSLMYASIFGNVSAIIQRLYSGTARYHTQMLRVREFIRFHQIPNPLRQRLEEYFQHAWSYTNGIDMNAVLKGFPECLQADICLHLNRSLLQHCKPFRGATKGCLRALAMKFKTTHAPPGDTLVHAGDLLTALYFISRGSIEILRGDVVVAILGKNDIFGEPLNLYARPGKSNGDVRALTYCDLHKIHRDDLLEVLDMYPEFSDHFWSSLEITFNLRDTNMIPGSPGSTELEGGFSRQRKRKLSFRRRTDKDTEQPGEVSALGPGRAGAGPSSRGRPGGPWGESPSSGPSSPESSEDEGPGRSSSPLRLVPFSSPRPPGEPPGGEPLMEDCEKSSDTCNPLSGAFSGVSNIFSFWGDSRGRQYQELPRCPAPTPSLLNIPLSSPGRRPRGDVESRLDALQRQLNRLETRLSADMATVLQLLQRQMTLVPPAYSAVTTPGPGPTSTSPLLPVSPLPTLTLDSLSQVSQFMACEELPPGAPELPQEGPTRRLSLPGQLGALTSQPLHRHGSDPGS

First: O=C(NCc1ccncc1)C(F)(F)C(F)(F)C(=O)NCc1ccncc1
Second: COC(=O)C(O)(c1ccc(N(C)C(=O)c2cccs2)cc1)C(F)(F)F (stereo not shown)
The “hERG current change (%, negative = inhibition) at 10uM” value of the first is lower: -2.17% for the first, 9.51% for the second.

Compared with `COC(OC)c1ccc(C#N)c(SCc2ccc(C)cc2)n1`, `COc1ccc(C(CC(=O)c2ccc(O)cc2)S(=O)(=O)c2ccc(C)cc2)cc1` (stereo not shown) is higher in “hERG current change (%, negative = inhibition) at 10uM” value: -12.6% for the first, -4.95% for the second.

Going from `CC(C)Cc1ccc(C(C)C(=O)O)cc1` (stereo not shown) to `CC(C)c1ccc(OCC(=O)NNC(=S)NC(=O)C2CC2)cc1`, the “hERG current change (%, negative = inhibition) at 10uM” value rises from -4.56% to 17.9%.

Compared with `C/C=C(\C)C(=O)NNC(=O)c1sc(-c2ccccc2)nc1C`, `NC(=O)Nc1ccccc1C(=O)NCCc1ccccc1` is lower in “hERG current change (%, negative = inhibition) at 10uM” value: 16% for the first, -2.67% for the second.

First: Cc1ccc(NC(=O)c2oc3c(c2C)C(=O)CC(C)(C)C3)cc1
Second: CC(=O)Nc1ccc(N/C=C2/CCCC2=O)cc1
The “hERG current change (%, negative = inhibition) at 10uM” value of the first is lower: 4.24% for the first, 5.74% for the second.

Going from `CCOC(=O)C1(CCOc2ccccc2)CCN(Cc2cccc(F)c2)CC1` to `Nc1ccc(C(=O)OCCc2ccccc2)cc1`, the “hERG current change (%, negative = inhibition) at 10uM” value rises from -65.4% to 9.38%.

First: COc1cc(COCC(O)CN2CCCCC2C)cc(OC)c1OC.Cl (stereo not shown)
Second: CC1CCCCN1C(=S)Nc1ccc(OC(F)F)cc1 (stereo not shown)
The “hERG current change (%, negative = inhibition) at 10uM” value of the first is higher: 20.6% for the first, -40.1% for the second.

First: CC(C)n1nnnc1-c1ccc(Cl)cc1
Second: CCCCC(=O)N(c1ccc(C(=O)O)cc1)c1nc(-c2ccc(Cl)cc2)c(CC)s1
The “hERG current change (%, negative = inhibition) at 10uM” value of the first is higher: 6.37% for the first, -9.58% for the second.

Going from `O=C1/C(=C/c2ccccn2)SC(=S)N1Cc1ccccc1` to `C=CCn1c(P(=O)(O)c2ccccc2)nc2ccccc21`, the “hERG current change (%, negative = inhibition) at 10uM” value rises from 5.91% to 11.8%.

First: Cc1cc(C)nc(SCC(=O)OCN2C(=O)c3ccccc3C2=O)n1
Second: CCc1cc2c(=O)c(-c3nc4ccccc4n3C)c(COCC(=O)O)oc2cc1OC(=O)C(C)(C)C
The “hERG current change (%, negative = inhibition) at 10uM” value of the first is lower: -8.92% for the first, 8.72% for the second.

First: CN1CCN(S(=O)(=O)c2ccc(N3CCN(C(c4ccccc4)c4ccccc4)CC3)nc2)CC1
Second: COc1ccc(C)cc1NC(=O)C(OC(=O)c1cccc(S(=O)(=O)N(C)c2ccccc2)c1)c1ccccc1 (stereo not shown)
The “hERG current change (%, negative = inhibition) at 10uM” value of the first is higher: 16.9% for the first, 15.1% for the second.

First: C/C(=N\NC(=O)C(N)=O)c1ccc2c(c1)OCCO2
Second: CC(C)C(OC(=O)C1=Cc2ccccc2OC1)C(=O)NC1CCCC1 (stereo not shown)
The “hERG current change (%, negative = inhibition) at 10uM” value of the first is lower: 9.05% for the first, 11.1% for the second.

First: Cc1cccc(NC(=O)c2cnc3scc(C)n3c2=O)c1
Second: Cc1nc2ncccn2c1-c1csc(Nc2cccc(C(=O)O)c2)n1
The “hERG current change (%, negative = inhibition) at 10uM” value of the first is lower: 2.46% for the first, 5.55% for the second.

Going from `CC1(C)C2CCC1(CS(=O)(=O)N1CCCc3ccccc31)C(=O)C2` (stereo not shown) to `COc1ccc(N2CCN(S(=O)(=O)CC34CCC(CC3=O)C4(C)C)CC2)cc1` (stereo not shown), the “hERG current change (%, negative = inhibition) at 10uM” value rises from -6.26% to 20.7%.

Compared with `CC1CCC2(CC1)NC(=O)N(CC(=O)NCc1ccc(F)cc1)C2=O` (stereo not shown), `Cn1c(=O)n(CC(=O)NCc2cccnc2)c2ccccc21` is higher in “hERG current change (%, negative = inhibition) at 10uM” value: -21.2% for the first, -10.5% for the second.

Compared with `COc1ccc(Nc2oc(-c3ccccc3Cl)nc2C#N)cc1`, `COc1ccc(NC(=O)Nc2ccc3nonc3c2)cc1` is higher in “hERG current change (%, negative = inhibition) at 10uM” value: 2% for the first, 3.37% for the second.

First: FC(F)=C(F)CCSc1ncn[nH]1
Second: C=C(C)CNC(=O)CCc1nnc(Cc2cccc(C(F)(F)F)c2)o1
The “hERG current change (%, negative = inhibition) at 10uM” value of the first is higher: 18.3% for the first, 15.7% for the second.

First: Cc1cc(NC(=O)C2CC2)ccc1NC(=O)c1cccs1
Second: CN1CCC(O)(c2cccs2)C(C(=O)c2cccs2)C1 (stereo not shown)
The “hERG current change (%, negative = inhibition) at 10uM” value of the first is lower: 10.4% for the first, 11.1% for the second.

Compared with `CCN(c1ccccc1)S(=O)(=O)c1ccc(C(=O)Oc2ccc(C(C)=O)cc2)cc1`, `Cc1ccc(NS(=O)(=O)c2ccc(C(=O)NNC(=O)c3ccccc3O)cc2)cc1` is lower in “hERG current change (%, negative = inhibition) at 10uM” value: 8.41% for the first, 0.906% for the second.

Going from `COc1ccc(NC(=O)COC(=O)c2ccc(C)c(S(=O)(=O)N3CCCCC3)c2)cc1` to `Cc1ccc(S(=O)(=O)N2CCC(C(=O)NNC(=O)c3ccc(F)cc3)CC2)cc1`, the “hERG current change (%, negative = inhibition) at 10uM” value rises from -15.5% to 11.2%.

First: S=C1NC2(CCCC2)Nc2ccccc21
Second: Oc1c(Br)cc(Br)cc1/C=N/n1c(-c2ccccc2)n[nH]c1=S
The “hERG current change (%, negative = inhibition) at 10uM” value of the first is lower: 3.67% for the first, 17.6% for the second.

Compared with `O=C(CSc1nc2ccccc2c(=O)n1-c1ccc(OC(F)F)cc1)NC1CC1`, `CC(NC(=O)CSc1cccc(C(F)(F)F)c1)c1ccccc1` (stereo not shown) is higher in “hERG current change (%, negative = inhibition) at 10uM” value: -13.8% for the first, -1.75% for the second.

First: O=C1C=C(N2CCOCC2)C2(CCCCC2)O1
Second: COc1cc(CNc2ccc(N3CCCC3)cc2)ccc1OCc1ccccc1
The “hERG current change (%, negative = inhibition) at 10uM” value of the first is higher: 17.8% for the first, 16.1% for the second.

Compared with `CCc1ccc2c(c1)CCCN2C(=O)c1ccccc1C(=O)O`, `CCN(CC(=O)Nc1c(F)cccc1F)C(=O)C1CC(=O)N(c2ccccc2OC)C1` (stereo not shown) is higher in “hERG current change (%, negative = inhibition) at 10uM” value: -33.2% for the first, 12.1% for the second.

Compared with `Cc1sc2ncnc(SCC(=O)c3ccc(Cl)s3)c2c1C`, `CCOC(=O)c1c(NC(=O)CSc2nnc(-c3cccc(C)c3)n2CC)sc(C(C)=O)c1C` is lower in “hERG current change (%, negative = inhibition) at 10uM” value: 18.3% for the first, -18.9% for the second.

Compared with `Nc1nc(N)nc(-c2ccc(Cl)c(Cl)c2)n1`, `CSc1nc2nc3c(cc2c(=O)n1-c1cccc(C)c1)COC(C)(C)C3` is higher in “hERG current change (%, negative = inhibition) at 10uM” value: -5.05% for the first, 9.49% for the second.

First: CN(C(=O)c1cncc(Br)c1)C1C2CC3CC(C2)CC1C3 (stereo not shown)
Second: CC(C)CC(=O)c1c[nH]c(C(=O)NCc2cccnc2)c1
The “hERG current change (%, negative = inhibition) at 10uM” value of the first is lower: 3.35% for the first, 8.11% for the second.

First: Cc1ccccc1N(CC(=O)N/N=C/c1ccc(N(C)C)cc1)C(=O)c1ccccc1
Second: CCOc1cc(/C=N/NC(=O)COc2ccc(Cl)cc2)ccc1OS(=O)(=O)c1ccccc1
The “hERG current change (%, negative = inhibition) at 10uM” value of the first is lower: -0.173% for the first, 14.9% for the second.

First: CC(=O)Nc1ccc(C(=O)NCCCOC(C)C)cc1
Second: Cc1ccc(S(=O)(=O)N(C)c2nc3ccccc3[nH]c2=S)cc1
The “hERG current change (%, negative = inhibition) at 10uM” value of the first is higher: 9.69% for the first, 4.41% for the second.
